± gives the standard error. Variants at the background level are over-represented here.
B1: glmS ribozyme (parent)
chain: AUAAAAGCGCCAGAACUACAGAAAUGUAGUUGACGAGGAGGAGGUUUAUCGAAUUUUCGGCGGAUGCCUCCAAA

Assays:
Conditions in all cases: with glucosamine-6-phosphate
glucosamine-6-phosphate [1] = variants of: B1; assay: self-cleavage kobs at 40 uM GlcN6P; higher = faster cleavage; RNA array
In short: (§1)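 Tracking of barcoded ribozyme variants used a hybridised Cy3 probe at 37 °C, after in situ transcription by E. coli RNA polymerase on sequenced MiSeq chips. The flowed solution held 40 μM to 10 mM glucosamine-6-phosphate in HEPES/KCl/Mg(OAc)2 buffer, and imaging ran over ~14 h. kobs was taken from exponential decay fits of normalised per-tile medians, and kcat and KM from weighted Michaelis–Menten fits.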

glucosamine-6-phosphate [2] = variants of: B1; assay: self-cleavage kobs at 640 uM GlcN6P; higher = faster cleavage; RNA array
In short: as §1

glucosamine-6-phosphate [3] = variants of: B1; assay: self-cleavage kobs at 10000 uM GlcN6P; higher = faster cleavage; RNA array
In short: as §1

glucosamine-6-phosphate [4] = variants of: B1; assay: self-cleavage kobs at 160 uM GlcN6P; higher = faster cleavage; RNA array
In short: as §1

glucosamine-6-phosphate [5] = variants of: B1; assay: self-cleavage kobs at 2500 uM GlcN6P; higher = faster cleavage; RNA array
In short: as §1

Variant | self-cleavage kobs at 40 uM GlcN6P (glucosamine-6-phosphate [1]) [s⁻¹] | self-cleavage kobs at 640 uM GlcN6P (glucosamine-6-phosphate [2]) [s⁻¹] | self-cleavage kobs at 10000 uM GlcN6P (glucosamine-6-phosphate [3]) [s⁻¹] | self-cleavage kobs at 160 uM GlcN6P (glucosamine-6-phosphate [4]) [s⁻¹] | self-cleavage kobs at 2500 uM GlcN6P (glucosamine-6-phosphate [5]) [s⁻¹]
G29A G62C | < 1e-05 | < 1e-05 | < 1e-05 |  | 
G29A U49C | < 1e-05 |  | < 1e-05 |  | 
G29C A33U A48C U55A | < 1e-05 |  | < 1e-05 |  | 
G29C A36G U47A A64G | < 1e-05 | < 1e-05 | < 1e-05 |  | 
G29C A36U | < 1e-05 | < 1e-05 |  |  | 
G29C A42U | < 1e-05 | < 1e-05 |  | < 1e-05 | 
G29C A64C | < 1e-05 | < 1e-05 |  |  | 
G29C C61A | < 1e-05 |  |  |  | 
G29C G60C | < 1e-05 | < 1e-05 | < 1e-05 | < 1e-05 | < 1e-05
G29C U31C C34U G62C | < 1e-05 |  |  |  | 
G29U A42C G59C | < 1e-05 |  |  |  | 
G29U C68U | 2.51e-05 ± 1e-05 | 0.00022 ± 2.5e-05 | 0.000719 ± 7.8e-05 | 6.87e-05 ± 1e-05 | 0.000435 ± 5.5e-05
G29U G38A G44A U47G | < 1e-05 |  | < 1e-05 |  | 
G29U G41A | < 1e-05 | 5.62e-05 ± 1.8e-05 | 0.000164 ± 4e-05 |  | 0.000155 ± 3.1e-05
G29U G43A G51U C71G | < 1e-05 |  | < 1e-05 |  | 
G29U G44U G60U | < 1e-05 | < 1e-05 |  | < 1e-05 | 
U30A G37C A64G | < 1e-05 |  |  |  | 
U30A G59C | < 1e-05 | < 1e-05 | < 1e-05 |  | < 1e-05
U30A U49C | < 1e-05 |  |  |  | 
U30C A64C G66U | < 1e-05 |  | < 1e-05 |  | 
U30C G38U C61U | < 1e-05 |  |  |  | 
U30C U57G | < 1e-05 |  |  |  | 
U30G A33C | < 1e-05 |  |  |  | 
U30G A36G C71G | < 1e-05 |  | < 1e-05 |  | < 1e-05
U30G A39G C58G G59A | < 1e-05 |  |  |  | 
U30G A52U U65C C67G C70G | < 1e-05 |  | < 1e-05 |  | 

Variant | self-cleavage kobs at 40 uM GlcN6P (glucosamine-6-phosphate [1]) [s⁻¹] | self-cleavage kobs at 640 uM GlcN6P (glucosamine-6-phosphate [2]) [s⁻¹] | self-cleavage kobs at 10000 uM GlcN6P (glucosamine-6-phosphate [3]) [s⁻¹] | self-cleavage kobs at 160 uM GlcN6P (glucosamine-6-phosphate [4]) [s⁻¹] | self-cleavage kobs at 2500 uM GlcN6P (glucosamine-6-phosphate [5]) [s⁻¹]
U30G C34U | < 1e-05 | < 1e-05 |  | < 1e-05 | < 1e-05
U30G U56A | 0.000125 ± 1.6e-05 | 0.00146 ± 0.00024 | 0.00771 ± 0.0011 | 0.000498 ± 0.0001 | 0.003 ± 0.00057
U31A A39G | 0.000491 ± 7.7e-05 | 0.00495 ± 0.0018 | 0.0363 ± 0.0095 | 0.00202 ± 0.00038 | 0.0245 ± 0.0078
U31A A42C U46A | < 1e-05 |  |  |  | 
U31A C61A A64U | < 1e-05 |  | < 1e-05 |  | 
U31A C61U | < 1e-05 |  |  |  | 
U31A G35U | < 1e-05 | < 1e-05 | < 1e-05 | < 1e-05 | < 1e-05
U31A G40A A42U | < 1e-05 |  |  |  | 
U31A U55G | 0.000331 ± 5.6e-05 | 0.0036 ± 0.00064 | 0.0123 ± 0.0044 | 0.000659 ± 9.3e-05 | 0.00546 ± 0.0012
U31C C61G | < 1e-05 |  | < 1e-05 |  | 
U31C G35U C70U | < 1e-05 |  |  |  | 
U31C G37U | < 1e-05 | < 1e-05 |  |  | 
U31C G41U U65A | < 1e-05 |  |  |  | 
U31G C61G | < 1e-05 | < 1e-05 | < 1e-05 | < 1e-05 | 
U31G G43C G62C | < 1e-05 |  | < 1e-05 |  | 
U31G U54G | 0.000298 ± 5.4e-05 | 0.00263 ± 0.00063 | 0.0119 ± 0.0031 | 0.000493 ± 8.5e-05 | 0.00445 ± 0.00094
G32A A64C | < 1e-05 |  |  | < 1e-05 | 
G32A G37U | < 1e-05 | < 1e-05 | < 1e-05 |  | 
G32A G38A | < 1e-05 |  |  |  | 
G32A G38C G59A C61G | < 1e-05 |  |  |  | < 1e-05
G32A G44C C67U | < 1e-05 |  | 0.00011 ± 2.3e-05 |  | 0.000148 ± 4.6e-05
G32A U47C A48G C71U | < 1e-05 |  |  |  | 
G32C A39C | < 1e-05 |  |  |  | 
G32C G35C A42G C50U U69G | < 1e-05 |  |  |  | 
G32C G37C A48U G59C | < 1e-05 |  |  |  | 
G32C U45G U65A | < 1e-05 | < 1e-05 | < 1e-05 |  | 
